Sequences and labels used below:
B1: Caulobacter ParB omega fusion; a variant is named by its letters at X, in order, B8GW30 (parent)
chain: MESVVVGEPGMSEGRRGLGRGLSALLGEVDAAPAQAPGEQLGGSREAPIEILQRNPDQPRRTFREEDLEDLSNSIREKGVLQPILVRPSPDTAGEYQIVAGERAWRAAQRAGLKTVPIMVRELDDLAVLEIGIIENVQRADLNVLEEALSYKVLMEKFERTQENIAQTIGKSXSHVANXMRLLXLPDEVQSYLVSGELTAXHARAIAAAADPVALAKQIIEGGLSVRETEALARKAPNLSAGKSKGGRPPRVKDTDTQALESDLSSVLGLDVSIDHRGSTGTLTITYATLEQLDDLCNRLTRGI

In all, about 81,000 sequences were measured (“one-hybrid fitness for binding NBS DNA”: median about -0.1, highest 2% from about 0.36 on). The list shows a part of the results.

This assay covers variants of B1. Kind of assay: one-hybrid fitness for binding NBS DNA (the Noc-binding site; scaled: cognate 1, non-cognate 0); higher = stronger binding. To be noted: with NBS DNA site. Summed up: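 Selection: bacterial one-hybrid in E. coli USO, HIS3 reporter with the site 19 bp from the promoter, 48 hours at 37°C on M9-minus-histidine plus 0.1 mM IPTG and 5 mM 3-AT. Libraries were Caulobacter ParB with four randomised specificity codons, sequenced on Illumina before and after selection. Fitness is the rescaled log change in variant-to-wild-type read ratio, anchored to the cognate and non-cognate sites.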
Consider IHTP, for which the “one-hybrid fitness for binding NBS DNA” value was no more than 0.2.

Take THQK: the “one-hybrid fitness for binding NBS DNA” value turned out to be 0.252.

For the variant LGYC, the “one-hybrid fitness for binding NBS DNA” value was no more than 0.2.

With EYKT, the “one-hybrid fitness for binding NBS DNA” value is no more than 0.2.

In the case of MSEE, the “one-hybrid fitness for binding NBS DNA” value is no more than 0.2.

For the variant PAPM, the “one-hybrid fitness for binding NBS DNA” value is no more than 0.2.

As for RHNT, the “one-hybrid fitness for binding NBS DNA” value turned out to be 0.508.

In the case of TPYR, the “one-hybrid fitness for binding NBS DNA” value is no more than 0.2.

Turning to RINF, the “one-hybrid fitness for binding NBS DNA” value is no more than 0.2.

Consider TMPS, for which the “one-hybrid fitness for binding NBS DNA” value is no more than 0.2.

As for LYRG, the “one-hybrid fitness for binding NBS DNA” value is no more than 0.2.

As to VDML, the “one-hybrid fitness for binding NBS DNA” value was no more than 0.2.

PHTK: the “one-hybrid fitness for binding NBS DNA” value is no more than 0.2.

Consider YLVC, for which the “one-hybrid fitness for binding NBS DNA” value was no more than 0.2.

For the variant KVDG, the “one-hybrid fitness for binding NBS DNA” value is no more than 0.2.

For the variant RPTR, the “one-hybrid fitness for binding NBS DNA” value was no more than 0.2.

In the case of NRFE, the “one-hybrid fitness for binding NBS DNA” value was no more than 0.2.

QKGT: the “one-hybrid fitness for binding NBS DNA” value stood at 0.566.

Take AQMC: the “one-hybrid fitness for binding NBS DNA” value was no more than 0.2.

With PYAF, the “one-hybrid fitness for binding NBS DNA” value was no more than 0.2.

For the variant TDPN, the “one-hybrid fitness for binding NBS DNA” value was no more than 0.2.

Turning to KRCR, the “one-hybrid fitness for binding NBS DNA” value was determined as 0.55.

Take PTVF: the “one-hybrid fitness for binding NBS DNA” value was no more than 0.2.

Turning to ATLI, the “one-hybrid fitness for binding NBS DNA” value is no more than 0.2.

Take AQPR: the “one-hybrid fitness for binding NBS DNA” value was no more than 0.2.

Consider RAVT, for which the “one-hybrid fitness for binding NBS DNA” value was determined as 0.237.

As for YFVV, the “one-hybrid fitness for binding NBS DNA” value was no more than 0.2.

With MCVM, the “one-hybrid fitness for binding NBS DNA” value is no more than 0.2.

For the variant MPNT, the “one-hybrid fitness for binding NBS DNA” value is no more than 0.2.

On to GQLG, for which the “one-hybrid fitness for binding NBS DNA” value was no more than 0.2.

Consider YAMG, for which the “one-hybrid fitness for binding NBS DNA” value was no more than 0.2.

Take KNCS: the “one-hybrid fitness for binding NBS DNA” value was no more than 0.2.

Turning to RKKD, the “one-hybrid fitness for binding NBS DNA” value is no more than 0.2.

With RWPG, the “one-hybrid fitness for binding NBS DNA” value was no more than 0.2.

Regarding SYHM, the “one-hybrid fitness for binding NBS DNA” value is no more than 0.2.

Turning to GEMK, the “one-hybrid fitness for binding NBS DNA” value was no more than 0.2.

For the variant KAYW, the “one-hybrid fitness for binding NBS DNA” value was no more than 0.2.

Regarding WSME, the “one-hybrid fitness for binding NBS DNA” value is no more than 0.2.

For WATT, the “one-hybrid fitness for binding NBS DNA” value was no more than 0.2.

For the variant PHYI, the “one-hybrid fitness for binding NBS DNA” value was no more than 0.2.

For MSVP, the “one-hybrid fitness for binding NBS DNA” value is no more than 0.2.

RVKD: the “one-hybrid fitness for binding NBS DNA” value was no more than 0.2.

In the case of SSCG, the “one-hybrid fitness for binding NBS DNA” value was no more than 0.2.

Turning to GMKR, the “one-hybrid fitness for binding NBS DNA” value turned out to be 0.213.

Take ASSE: the “one-hybrid fitness for binding NBS DNA” value was no more than 0.2.

AGCS: the “one-hybrid fitness for binding NBS DNA” value is no more than 0.2.

For the variant ADCS, the “one-hybrid fitness for binding NBS DNA” value is no more than 0.2.

For WSFT, the “one-hybrid fitness for binding NBS DNA” value is no more than 0.2.

For the variant LPAI, the “one-hybrid fitness for binding NBS DNA” value is no more than 0.2.

MVLC: the “one-hybrid fitness for binding NBS DNA” value was no more than 0.2.

Consider DLIE, for which the “one-hybrid fitness for binding NBS DNA” value was no more than 0.2.

As for WHVT, the “one-hybrid fitness for binding NBS DNA” value is no more than 0.2.

For AAAD, the “one-hybrid fitness for binding NBS DNA” value was no more than 0.2.

With QVDI, the “one-hybrid fitness for binding NBS DNA” value was no more than 0.2.

Take ISDT: the “one-hybrid fitness for binding NBS DNA” value is no more than 0.2.

Consider TVNL, for which the “one-hybrid fitness for binding NBS DNA” value was no more than 0.2.

For the variant TVPF, the “one-hybrid fitness for binding NBS DNA” value is no more than 0.2.

As for LEPP, the “one-hybrid fitness for binding NBS DNA” value was no more than 0.2.

Regarding YAKG, the “one-hybrid fitness for binding NBS DNA” value was no more than 0.2.

For the variant HKFG, the “one-hybrid fitness for binding NBS DNA” value was no more than 0.2.

In the case of DTIT, the “one-hybrid fitness for binding NBS DNA” value is no more than 0.2.

For KCMY, the “one-hybrid fitness for binding NBS DNA” value was no more than 0.2.

Consider DSYL, for which the “one-hybrid fitness for binding NBS DNA” value is no more than 0.2.

As for VLRH, the “one-hybrid fitness for binding NBS DNA” value is no more than 0.2.

For WELE, the “one-hybrid fitness for binding NBS DNA” value was no more than 0.2.

HRVF: the “one-hybrid fitness for binding NBS DNA” value was no more than 0.2.

SWCC: the “one-hybrid fitness for binding NBS DNA” value is no more than 0.2.

For QRSY, the “one-hybrid fitness for binding NBS DNA” value was 0.477.

On to CDKR, for which the “one-hybrid fitness for binding NBS DNA” value was no more than 0.2.

Take PSTG: the “one-hybrid fitness for binding NBS DNA” value is no more than 0.2.

As to LSCI, the “one-hybrid fitness for binding NBS DNA” value was no more than 0.2.

Take QQRD: the “one-hybrid fitness for binding NBS DNA” value came to 0.286.

Take CTDR: the “one-hybrid fitness for binding NBS DNA” value was no more than 0.2.

For GKRL, the “one-hybrid fitness for binding NBS DNA” value is no more than 0.2.

Regarding TVDW, the “one-hybrid fitness for binding NBS DNA” value was no more than 0.2.

Regarding NHAR, the “one-hybrid fitness for binding NBS DNA” value is no more than 0.2.

These data come from a collection of fitness landscapes (doi:10.1016/j.celrep.2020.107928).
